# In the supplement of paper PMC4604168 (melanoma cell lines):
# This is one part of the list. Repeats are few or missing, and single values can be far off.
# Test system: SkMel30
# Experiment: cell count relative to DMSO control; melanoma cells; higher = more viable cells
# Conditions: library dose: standard library concentration; 72 h
# 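Further: cells treated in 1,536-well plates, then fixed and DAPI-stained, with nuclei counted from automated high-throughput microscope images.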
row,SMILES,cell count [%]
1,"CCCCCCCCc1ccc(CCC(N)(CO)CO)cc1 [fingolimod] + Oc1cc(-c2nc(-c3ccccc3)[nH]c2-c2ccncc2)ccc1Cl [L779450] (first compound 10 µM, partner dose 1 µM)",17.9
2,"NC(=O)c1ccc(N(C(N)=O)c2c(F)cccc2F)nc1-c1ccc(F)cc1F + Oc1cc(-c2nc(-c3ccccc3)[nH]c2-c2ccncc2)ccc1Cl [L779450] (first compound 2 µM, partner dose 1 µM)",81.8
3,"COc1cc2c(Oc3ccc4[nH]c(C)cc4c3F)ncnc2cc1OCCCN1CCCC1 [cediranib] + COC(=O)c1sccc1S(=O)(=O)Nc1ccc(Nc2ccccc2)cc1OC [GSK0660] (first compound 2 µM, partner dose 5 µM)",83.7
4,"NC(=O)c1ccc(N(C(N)=O)c2c(F)cccc2F)nc1-c1ccc(F)cc1F + Cc1cc([N+](=O)[O-])ccc1NS(=O)(=O)c1cc(Cl)ccc1Cl [FH535] (first compound 2 µM, partner dose 5 µM)",79.8
5,"Cc1ccc(NC(=O)c2cccc(N(C)C)c2)cc1NC(=O)c1ccc(O)cc1 + N#Cc1c(O)c2c(-c3ccc(-c4ccccc4O)cc3)csc2[nH]c1=O [A769662] (first compound 10 µM, partner dose 10 µM)",109
6,"NC(=O)c1ccc(N(C(N)=O)c2c(F)cccc2F)nc1-c1ccc(F)cc1F + COc1cc(N2CCC(N3CCN(C)CC3)CC2)ccc1Nc1ncc(Cl)c(Nc2ccccc2S(=O)(=O)C(C)C)n1 [NVP-TAE684] (first compound 2 µM, partner dose 0.4 µM)",139
7,"CCc1ccc(CCOc2ccc(CC3SC(=O)NC3=O)cc2)nc1 (stereo unspecified) [pioglitazone] + COc1ccc2c(c1)CCC1C2CCC2(C)C(NCCCCCCN3C(=O)C=CC3=O)CCC12 [U73122] (first compound 10 µM, partner dose 2 µM)",91.3
8,"NC(=O)c1ccc(N(C(N)=O)c2c(F)cccc2F)nc1-c1ccc(F)cc1F + COc1ccc2c(c1)CCC1C2CCC2(C)C(NCCCCCCN3C(=O)C=CC3=O)CCC12 [U73122] (first compound 2 µM, partner dose 2 µM)",70.9
9,"NC(=O)c1ccc(N(C(N)=O)c2c(F)cccc2F)nc1-c1ccc(F)cc1F + O=S(=O)(c1ccccc1)N(CC(F)(F)F)c1ccc(C(O)(C(F)(F)F)C(F)(F)F)cc1 [T0901317] (first compound 2 µM, partner dose 7 µM)",99.1
10,"CCCCCCCCc1ccc(CCC(N)(CO)CO)cc1 [fingolimod] + Cc1cc([N+](=O)[O-])ccc1NS(=O)(=O)c1cc(Cl)ccc1Cl [FH535] (first compound 10 µM, partner dose 5 µM)",11.4
11,"CCCCCCCCc1ccc(CCC(N)(CO)CO)cc1 [fingolimod] + COc1ccc2c(c1)CCC1C2CCC2(C)C(NCCCCCCN3C(=O)C=CC3=O)CCC12 [U73122] (first compound 10 µM, partner dose 2 µM)",14.9
12,"NC(=O)c1ccc(N(C(N)=O)c2c(F)cccc2F)nc1-c1ccc(F)cc1F + COC(=O)c1sccc1S(=O)(=O)Nc1ccc(Nc2ccccc2)cc1OC [GSK0660] (first compound 2 µM, partner dose 5 µM)",108
13,"CCCCCCCCc1ccc(CCC(N)(CO)CO)cc1 [fingolimod] + Cc1cc(Nc2cc(N3CCN(C)CC3)nc(/C=C/c3ccccc3)n2)n[nH]1 [ENMD2076] (first compound 10 µM, partner dose 0.2 µM)",13.5
14,"NC(=O)c1ccc(N(C(N)=O)c2c(F)cccc2F)nc1-c1ccc(F)cc1F + COc1ccc(-c2ccc3c(N4CCOCC4)nc(N4C[C@@H](C)O[C@@H](C)C4)nc3n2)cc1CO [KU0063794] (first compound 2 µM, partner dose 0.1 µM)",92.3
15,"CCCCCCCCc1ccc(CCC(N)(CO)CO)cc1 [fingolimod] + O=S(=O)(c1ccccc1)N(CC(F)(F)F)c1ccc(C(O)(C(F)(F)F)C(F)(F)F)cc1 [T0901317] (first compound 10 µM, partner dose 7 µM)",5.01
16,"CCCCCCCCc1ccc(CCC(N)(CO)CO)cc1 [fingolimod] + c1cc(-c2cnn3cc(-c4ccc(OCCN5CCCCC5)cc4)cnc23)ccn1 [Dorsomorphin] (first compound 10 µM, partner dose 2 µM)",37.5
